This note sets out measurements from the supplement of paper PMC4604168 (melanoma cell lines).

The other results are listed elsewhere or left out. Many values rest on one well or one pass, so single values are uncertain.

Among the test systems are SkMel28; SkMel2; SkMel30; SkMel5; UACC257; UACC62; WM115; WM1716; WM1745; WM3526.
What all share (experiment): cell count relative to DMSO control; melanoma cells; higher = more viable cells
Common to all, as to settings: library dose: standard library concentration; 72 h
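Further: cells treated in 1,536-well plates, then fixed and DAPI-stained, with nuclei counted from automated high-throughput microscope images.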

Consider `O=C(Nc1cc(C(F)(F)F)cc(C(F)(F)F)c1)c1cc(Cl)ccc1O` + OCCn1cc(-c2cnc3nnn(Cc4ccc5ncccc5c4)c3n2)cn1 [PF04217903] (first compound 0.08 µM, partner dose 5 µM), for which the cell count in the assay with SkMel28 came out at 106%; in the assay on SkMel2, 97.2%; in the assay on SkMel30 it was 128%; in the assay with SkMel5 it was 73.5%; in the assay on UACC257, 87%; in the assay with UACC62, 82.2%. The cell count turned out to be 90.1% with WM115, 92.7% in the assay on WM1716, 116% in the assay on WM1745 and 91.5% in the assay with WM3526.
Consider `Cn1nnc2c(C(N)=O)ncn2c1=O` [temozolomide] + CCc1ccc(CCOc2ccc(CC3SC(=O)NC3=O)cc2)nc1 [pioglitazone] (first compound 10 µM, partner dose 10 µM), for which the cell count in the assay on SkMel28 worked out at 33.4%; with SkMel2 it was 99.9%; with SkMel30 it was 65.4%; in the assay on SkMel5, 65.8%; in the assay on UACC257, 92.5%; in the assay on UACC62, 77.1%. Besides, the cell count amounted to 79.8% in the assay on WM115, 76.8% with WM1716, 79% in the assay on WM1745 and 98.3% with WM3526.
In the case of `Cn1nnc2c(C(N)=O)ncn2c1=O` [temozolomide] + COc1cc2c(Oc3ccc4[nH]c(C)cc4c3F)ncnc2cc1OCCCN1CCCC1 [cediranib] (first compound 10 µM, partner dose 2 µM), the cell count in the assay on SkMel28 was found to be 49.8%; in the assay on SkMel2, 82.7%; in the assay with SkMel30, 53.8%; with SkMel5, 89.2%; with UACC257, 94.1%; in the assay with UACC62, 52.7%. Besides, the cell count in the assay with WM115 was found to be 65.1%; with WM1716, 52.4%; in the assay on WM1745, 73.2%; with WM3526, 81%.
Turning to `Cc1cc(N2CCOCC2)cc2[nH]c(-c3c(NC[C@@H](O)c4cccc(Cl)c4)cc[nH]c3=O)nc12` + COC(=O)c1sccc1S(=O)(=O)Nc1ccc(Nc2ccccc2)cc1OC [GSK0660] (first compound 1 µM, partner dose 5 µM), the cell count was determined as 79.4% in the assay with SkMel28; 85.6% in the assay with SkMel2; 88.3% with SkMel30; 53.7% in the assay with SkMel5; 82.1% with UACC257; 121% in the assay with UACC62. Besides, the cell count was 87.1% with WM115, 93.8% in the assay with WM1716, 61.4% in the assay with WM1745 and 75.9% with WM3526.
As to `O=C(O)[C@@H]1[O][Sb](=[O])([O][Sb]2(=[O])[O][C@H]([C@H](O)CO)[C@H](O)[C@H](C(=O)O)[O]2)[O][C@H]([C@H](O)CO)[C@@H]1O` (stereo not given in full) [stibogluconate] + CNC(=O)c1cc(Oc2ccc(NC(=O)Nc3ccc(Cl)c(C(F)(F)F)c3)cc2)ccn1 [sorafenib] (first compound 10 µM, partner dose 2 µM), the cell count in the assay with SkMel28 was determined as 63.3%; in the assay on SkMel2, 87.9%; in the assay with SkMel30 it was 95%; in the assay with SkMel5, 66.9%; in the assay on UACC257, 94.9%; with UACC62, 107%. Besides, the cell count with WM115 came out at 80.4%; with WM1716, 105%; in the assay with WM1745, 59.6%; in the assay with WM3526, 61%.
Turning to `O=C(O)[C@@H]1[O][Sb](=[O])([O][Sb]2(=[O])[O][C@H]([C@H](O)CO)[C@H](O)[C@H](C(=O)O)[O]2)[O][C@H]([C@H](O)CO)[C@@H]1O` (stereo not given in full) [stibogluconate] + C=C(c1ccc(C(=O)O)cc1)c1cc2c(cc1C)C(C)(C)CCC2(C)C [Bexarotene] (first compound 10 µM, partner dose 10 µM), the cell count is 102% in the assay on SkMel28; 93% in the assay with SkMel2; 78.4% with SkMel30; 71.4% with SkMel5; 77.4% in the assay with UACC257; 84.3% with UACC62. The cell count with WM115 was found to be 129%; in the assay on WM1716, 84.2%; in the assay with WM1745, 85.4%; with WM3526, 82%.
As to `O=C(Nc1ccccc1)c1cc([N+](=O)[O-])ccc1Cl` + COc1ccc2c(c1)CCC1C2CCC2(C)C(NCCCCCCN3C(=O)C=CC3=O)CCC12 [U73122] (first compound 10 µM, partner dose 2 µM), the cell count in the assay with SkMel28 turned out to be 49.5%; with SkMel2, 82.7%; with SkMel30, 107%; with SkMel5, 90.3%; in the assay with UACC257, 85.8%; with UACC62, 90.2%. Besides, the cell count in the assay on WM115 was found to be 76.4%; with WM1716 it was 79.7%; with WM1745, 64.6%; in the assay with WM3526 it was 95.5%.
In the case of `O=C(O)[C@@H]1[O][Sb](=[O])([O][Sb]2(=[O])[O][C@H]([C@H](O)CO)[C@H](O)[C@H](C(=O)O)[O]2)[O][C@H]([C@H](O)CO)[C@@H]1O` (stereo not given in full) [stibogluconate] + O=C(O)c1ccc2c(c1)nc(Nc1cccc(Cl)c1)c1ccncc12 [CX4945] (first compound 10 µM, partner dose 2 µM), the cell count was 56.4% with SkMel28; 61.1% in the assay on SkMel2; 60.9% in the assay with SkMel30; 88% in the assay with SkMel5; 89.9% in the assay with UACC257; 73.4% with UACC62. In addition, the cell count in the assay on WM115 is 76.1%; in the assay on WM1716, 106%; with WM1745, 57.9%; with WM3526 it was 70.3%.
`O=C(O)c1ccc2c(c1)nc(Nc1cccc(Cl)c1)c1ccncc12` + Cn1c(Nc2ccc(C(F)(F)F)cc2)nc2cc(Oc3ccnc(-c4ncc(C(F)(F)F)[nH]4)c3)ccc21 [CHIR265] (first compound 2 µM, partner dose 0.4 µM): the cell count with SkMel28 was determined as 30.4%; with SkMel2 it was 47.9%; in the assay with SkMel30 it was 48.9%; with SkMel5, 35.9%; in the assay with UACC257 it was 67.6%; with UACC62 it was 21.9%. The cell count with WM115 came to 41.4%; with WM1716 it was 76.3%; with WM1745 it was 43.2%; in the assay with WM3526 it was 34.6%.
For `O=C(Nc1cc(C(F)(F)F)cc(C(F)(F)F)c1)c1cc(Cl)ccc1O` + Nc1nc(F)nc2c1ncn2[C@@H]1O[C@H](CO)[C@@H](O)[C@@H]1O [fludarabine] (first compound 0.08 µM, partner dose 1 µM), the cell count in the assay on SkMel28 came out at 2.2%; with SkMel2, 2.49%; in the assay with SkMel30 it was 23.5%; with SkMel5 it was 33.4%; in the assay on UACC257 it was 53.7%; in the assay on UACC62, 83.7%. For the same molecule, the cell count with WM115 was found to be 107%; in the assay with WM1716 it was 110%; in the assay with WM1745 it was 98.2%; with WM3526, 36%.
With `O=C(Nc1cc(C(F)(F)F)cc(C(F)(F)F)c1)c1cc(Cl)ccc1O` + O=C(Nc1cccc(Cl)c1)Nc1ncc(CCNc2ncnc3ccsc23)s1 [SNS314] (first compound 0.08 µM, partner dose 0.004 µM), the cell count came to 65% in the assay with SkMel28; 92.6% in the assay on SkMel2; 104% in the assay on SkMel30; 74.5% in the assay with SkMel5; 74.3% in the assay on UACC257; 70.1% with UACC62. In addition, the cell count in the assay on WM115 is 53%; in the assay with WM1716, 69%; in the assay on WM1745 it was 86.9%; in the assay on WM3526 it was 78.3%.
